# “And” between values parts separate entries of the source, which are not always exact repeats. Identical values can stand only once. Whole data set: some 2,900 compounds, median “NF-kB SEAP reporter activity, fold change vs agonist alone” near 0.99, cut for the highest 2% near 2.6. The list shows a part of the results.
# Assays:
# [1] = test system: RAW-Dual; assay: NF-kB SEAP reporter activity, fold change vs agonist alone; cytotoxicity flag (confluency mask): not cytotoxic; higher = enhanced NF-kB activity
# In short: (§1)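 Reporter activity is given as fold change relative to agonist-alone wells. To measure it, 50 nL of library stock was pin-tooled onto RAW-Dual macrophages (50,000 cells/well, DMEM, 384-well plates), a PRR agonist followed 1 h later, and cells stayed at 37 °C, 5% CO2. Twenty hours on, supernatant was assayed for IRF (QuantiLuc luminescence) and NF-κB (QuantiBlue, 620 nm absorbance), and wells under 70% of agonist-control IncuCyte confluency in both mask sets were marked cytotoxic.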
# [2] = test system: RAW-Dual; assay: NF-kB SEAP reporter activity, fold change vs agonist alone; higher = enhanced NF-kB activity; conditions: cytotoxicity flag (confluency mask): not cytotoxic
# In short: as §1
# [3] = test system: RAW-Dual; assay: NF-kB SEAP reporter activity, fold change vs agonist alone; cytotoxicity flag (confluency mask): cytotoxic (confluency <70% of control); higher = enhanced NF-kB activity
# In short: as §1
# [4] = agonist: ODN 1826 (TLR9) 0.5 ug/mL
# [5] = agonist: Pam2CSK4 (TLR2/6) 0.1 ug/mL
# [6] = agonist: Pam3CSK4 (TLR2/1) 0.1 ug/mL
# [7] = library stock concentration (final ~1000-fold dilution): 10 mM, agonist: Imiquimod (TLR7) […]
# [8] = library stock concentration (final ~1000-fold dilution): 10 mM, agonist: MPLA (TLR4) […]
structure (smiles),measurement,setting,value
CC(=O)O[C@@H]1CC[C@@]2(C)[C@@H](CC[C@]3(C)[C@@H]2C(=O)C=C2[C@@H]4[C@@H](C)[C@H](C)CC[C@]4(C)CC[C@]23C)[C@@]1(C)C(=O)O (library stock concentration (final ~1000-fold dilution): 10 mM),NF-kB SEAP reporter activity,[1]; agonist: LPS (TLR4) 0.1 ug/mL,0.709
same,NF-kB SEAP reporter activity,[1]; [4],0.986
same,NF-kB SEAP reporter activity,[1]; [5],0.629
same,NF-kB SEAP reporter activity,[1]; [6],0.976
CC(=O)O[C@@H]1CC[C@@]2(C)[C@@H](CC[C@]3(C)[C@@H]2C(=O)C=C2[C@@H]4[C@@H](C)[C@H](C)CC[C@]4(C)CC[C@]23C)[C@@]1(C)C(=O)O,NF-kB SEAP reporter activity,[2]; [7],0.923
same,NF-kB SEAP reporter activity,[2]; [8],0.977
O=C(NCCCNc1nc(Nc2cccc(NC(=O)N3CCCC3)c2)ncc1I)c1cccs1 (library stock concentration (final ~1000-fold dilution): 10 mM),NF-kB SEAP reporter activity,[3]; agonist: LPS (TLR4) 0.1 ug/mL,0.329 and 0.35
same,NF-kB SEAP reporter activity,[3]; [4],0.729 and 1.48
same,NF-kB SEAP reporter activity,[3]; [5],0.0917 and 0.128
same,NF-kB SEAP reporter activity,[3]; [6],0.252 and 0.376
Cc1ccccc1C(=O)Nc1ccc(C(=O)N2CCCC(N(C)C)c3ccccc32)cc1 (stereo not given) (library stock concentration (final ~1000-fold dilution): 2 mM),NF-kB SEAP reporter activity,[1]; agonist: LPS (TLR4) 0.1 ug/mL,1.12
same,NF-kB SEAP reporter activity,[1]; [4],0.973
same,NF-kB SEAP reporter activity,[1]; [5],0.996
same,NF-kB SEAP reporter activity,[1]; [6],0.972
Cc1ccccc1C(=O)Nc1ccc(C(=O)N2CCCC(N(C)C)c3ccccc32)cc1 (stereo not given),NF-kB SEAP reporter activity,"[2]; library stock concentration (final ~1000-fold dilution): 2 mM, agonist: Imiquimod (TLR7) […]",0.98
same,NF-kB SEAP reporter activity,"[2]; library stock concentration (final ~1000-fold dilution): 2 mM, agonist: MPLA (TLR4) […]",1.01
Cc1ccc(C)c(N/C=C/C(=O)c2ccccc2)c1 (library stock concentration (final ~1000-fold dilution): 10 mM),NF-kB SEAP reporter activity,[1]; agonist: LPS (TLR4) 0.1 ug/mL,1.66
same,NF-kB SEAP reporter activity,[1]; [4],1.1
same,NF-kB SEAP reporter activity,[1]; [5],1.03
same,NF-kB SEAP reporter activity,[1]; [6],1.1
Cc1ccc(C)c(N/C=C/C(=O)c2ccccc2)c1,NF-kB SEAP reporter activity,[2]; [7],1.01
same,NF-kB SEAP reporter activity,[2]; [8],1.38
CC(=O)N1CCCC1C(=O)NC(Cc1c[nH]cn1)C(=O)NC(CO)C(=O)NC(CS)C(=O)NC(CC(N)=O)C(N)=O (stereo not given),NF-kB SEAP reporter activity,"[2]; library stock concentration (final ~1000-fold dilution): 10 mM water, agonist: Imiquimod (TLR7) […]",0.979
same,NF-kB SEAP reporter activity,"[2]; library stock concentration (final ~1000-fold dilution): 10 mM water, agonist: MPLA (TLR4) […]",1.06
CC(=O)N1CCCC1C(=O)NC(Cc1c[nH]cn1)C(=O)NC(CO)C(=O)NC(CS)C(=O)NC(CC(N)=O)C(N)=O (stereo not given) (library stock concentration (final ~1000-fold dilution): 10 mM water),NF-kB SEAP reporter activity,[1]; agonist: LPS (TLR4) 0.1 ug/mL,1.15
same,NF-kB SEAP reporter activity,[1]; [4],1.22
same,NF-kB SEAP reporter activity,[1]; [5],1.19
same,NF-kB SEAP reporter activity,[1]; [6],1.02
Cc1ccc(/C(=C\CN2CCCC2)c2ccccn2)cc1.Cl.O (library stock concentration (final ~1000-fold dilution): 10 mM),NF-kB SEAP reporter activity,[1]; agonist: LPS (TLR4) 0.1 ug/mL,1.18
same,NF-kB SEAP reporter activity,[1]; [4],0.919
same,NF-kB SEAP reporter activity,[1]; [5],0.77
same,NF-kB SEAP reporter activity,[1]; [6],0.923
Cc1ccc(/C(=C\CN2CCCC2)c2ccccn2)cc1.Cl.O,NF-kB SEAP reporter activity,[2]; [8],1.01
NS(=O)(=O)c1ccc(NC(=O)Nc2ccc(F)cc2)cc1 (library stock concentration (final ~1000-fold dilution): 10 mM),NF-kB SEAP reporter activity,[1]; agonist: LPS (TLR4) 0.1 ug/mL,0.964
same,NF-kB SEAP reporter activity,[1]; [4],0.955
same,NF-kB SEAP reporter activity,[1]; [5],0.766
same,NF-kB SEAP reporter activity,[1]; [6],0.963
NS(=O)(=O)c1ccc(NC(=O)Nc2ccc(F)cc2)cc1,NF-kB SEAP reporter activity,[2]; [7],0.976
same,NF-kB SEAP reporter activity,[2]; [8],1.01
CC(Cn1cnc2c(N)ncnc21)OCP(=O)(O)O (stereo not given),NF-kB SEAP reporter activity,[2]; [7],0.921
same,NF-kB SEAP reporter activity,[2]; [8],0.961
CC(Cn1cnc2c(N)ncnc21)OCP(=O)(O)O (stereo not given) (library stock concentration (final ~1000-fold dilution): 10 mM),NF-kB SEAP reporter activity,[1]; agonist: LPS (TLR4) 0.1 ug/mL,0.98
same,NF-kB SEAP reporter activity,[1]; [4],1.02
same,NF-kB SEAP reporter activity,[1]; [5],0.962
same,NF-kB SEAP reporter activity,[1]; [6],0.961
FC(F)(F)Oc1ccc(-c2ccc3nnc(C(F)(F)F)n3c2)cc1,NF-kB SEAP reporter activity,[2]; [8],0.877
FC(F)(F)Oc1ccc(-c2ccc3nnc(C(F)(F)F)n3c2)cc1 (library stock concentration (final ~1000-fold dilution): 10 mM),NF-kB SEAP reporter activity,[1]; agonist: LPS (TLR4) 0.1 ug/mL,1.08
same,NF-kB SEAP reporter activity,[1]; [4],0.832
same,NF-kB SEAP reporter activity,[1]; [5],0.744
same,NF-kB SEAP reporter activity,[1]; [6],0.732
CC1CCN(C(=O)CC#N)CC1N(C)c1ncnc2[nH]ccc12 (stereo not given),NF-kB SEAP reporter activity,[2]; [7],1.31
same,NF-kB SEAP reporter activity,[2]; [8],1.05
CC1CCN(C(=O)CC#N)CC1N(C)c1ncnc2[nH]ccc12 (stereo not given) (library stock concentration (final ~1000-fold dilution): 10 mM),NF-kB SEAP reporter activity,[1]; agonist: LPS (TLR4) 0.1 ug/mL,0.799
same,NF-kB SEAP reporter activity,[1]; [4],1.27
same,NF-kB SEAP reporter activity,[1]; [5],1.33
same,NF-kB SEAP reporter activity,[1]; [6],1.51
O=C(O)CCCC[C@@H]1CCSS1 (library stock concentration (final ~1000-fold dilution): 10 mM),NF-kB SEAP reporter activity,[1]; agonist: LPS (TLR4) 0.1 ug/mL,1.54
same,NF-kB SEAP reporter activity,[1]; [4],1.05
same,NF-kB SEAP reporter activity,[1]; [5],1.18
same,NF-kB SEAP reporter activity,[1]; [6],1.09
O=C(O)CCCC[C@@H]1CCSS1,NF-kB SEAP reporter activity,[2]; [7],0.941
same,NF-kB SEAP reporter activity,[2]; [8],1.03
COc1cc2ccc(=O)oc2cc1O (library stock concentration (final ~1000-fold dilution): 10 mM),NF-kB SEAP reporter activity,[1]; agonist: LPS (TLR4) 0.1 ug/mL,1.25
same,NF-kB SEAP reporter activity,[1]; [4],1.02
same,NF-kB SEAP reporter activity,[1]; [5],1.23
same,NF-kB SEAP reporter activity,[1]; [6],1.13
COc1cc2ccc(=O)oc2cc1O,NF-kB SEAP reporter activity,[2]; [7],1
same,NF-kB SEAP reporter activity,[2]; [8],1.09
CCNc1nc(Nc2cc(F)c(C(=O)N3CCOCC3)cc2OC)ncc1C(F)(F)F (library stock concentration (final ~1000-fold dilution): 10 mM),NF-kB SEAP reporter activity,[1]; agonist: LPS (TLR4) 0.1 ug/mL,0.855
same,NF-kB SEAP reporter activity,[1]; [4],0.831
same,NF-kB SEAP reporter activity,[1]; [5],0.871
same,NF-kB SEAP reporter activity,[1]; [6],0.8
CCNc1nc(Nc2cc(F)c(C(=O)N3CCOCC3)cc2OC)ncc1C(F)(F)F,NF-kB SEAP reporter activity,[2]; [7],1.12
same,NF-kB SEAP reporter activity,[2]; [8],1.23
Cc1ccc(-c2ccc(C)cn2)nc1,NF-kB SEAP reporter activity,[2]; [7],0.9
same,NF-kB SEAP reporter activity,[2]; [8],1
Cc1ccc(-c2ccc(C)cn2)nc1 (library stock concentration (final ~1000-fold dilution): 10 mM),NF-kB SEAP reporter activity,[1]; agonist: LPS (TLR4) 0.1 ug/mL,1.11
same,NF-kB SEAP reporter activity,[1]; [4],0.777
same,NF-kB SEAP reporter activity,[1]; [5],0.881
same,NF-kB SEAP reporter activity,[1]; [6],0.793

# Source: the supplement of paper PMC10037445
